PubChem BioAssay AID686978 (National Center for Advancing Translational Sciences (NCATS), 2013)
The campaign covered roughly 420,000 compounds. About 64,000 (15%) were called active. The shares of active, inactive and inconclusive entries below differ from those in the screen. The call rests on the fitted dose curve; in most records, active means well fitted inhibition curve with a large enough effect; inconclusive means small, poorly fitted or top-dose-only effect; inactive means flat fitted curve, though single readings scatter. Potencies of inconclusive entries are left out as doubtful fits.

Assay: qHTS for Inhibitors of human tyrosyl-DNA phosphodiesterase 1 (TDP1): qHTS in cells in absence of CPT; further: nearly all actives have a fitted effect of over 55% in size
Settings: DT40 Tdp1-/- hTDP1 cells, no CPT, ATP luminescence, 48 h; activity change, negative = growth inhibition: at 46.2 µM (top of the series) unless noted
How it was run: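 Seeded 400 DT40-hTDP1 cells/well (vehicle DMSO, no 20 nM CPT); pinned compounds; ≥48 hr at 37 °C; CellTiter-Glo luminescence as viability measure.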
On the % scale 0 is the no-effect control and ±100 the full control effect; potency means the concentration at half of the fitted maximal effect; tags describe the fitted curve by direction and shape.

Row | SMILES | activity change, negative = growth inhibition | Potency
1 | COC1(OC)C(=N/O)/C(=N\O)CCC1O (stereo not drawn) | inconclusive: -35% [inhibitor] | –
2 | O=C(CCN1c2ccccc2Sc2ccccc21)Oc1ccccc1 | – | inactive
3 | O=c1[nH]c2cc3c(cc2cc1C(c1nnnn1C1CCCCC1)N1CCSCC1)OCCO3 (stereo not drawn) | – | inconclusive [inhibitor, partial curve]
4 | Cc1ccc(N2CC(C(=O)N3CCCCC3)CC2=O)cc1C (stereo not drawn) | – | inactive
5 | C=CCNC(=S)N/N=C/c1cccc([N+](=O)[O-])c1 | – | inconclusive [inhibitor, single point]
6 | Cc1[nH]c2ccccc2c1CCN(Cc1cccnc1)C(=S)Nc1cccc(F)c1 | – | inconclusive [inhibitor, single point]
7 | N#Cc1c(N)nc(SC2CCCCC2=O)c(C#N)c1-c1ccco1 (stereo not drawn) | – | inconclusive [inhibitor, partial curve]
8 | CCOc1ccccc1-c1nc(-c2ccc(NC(=O)c3ccc(Br)o3)cc2)no1 | – | inconclusive [inhibitor, single point]
9 | CC(=O)Nc1ccc(NC(=O)C(C)OC(=O)/C(C#N)=C/c2ccc(N(C)C)cc2)cc1 (stereo not drawn) | – | inactive
10 | O=C(COc1ccc(Cl)cc1)NCC(c1cccs1)S(=O)(=O)c1ccc(F)cc1 (stereo not drawn) | – | inconclusive [inhibitor, single point]
11 | CCN1CCN(S(=O)(=O)c2ccc(Cl)c(C(=O)N(C)Cc3ccc(F)cc3)c2)CC1 | – | inconclusive [inhibitor, partial curve]
12 | CN1CCC(N(C)C(=O)c2cc(-c3ccccc3Cl)nc3ccccc23)CC1 | – | inconclusive [inhibitor, single point]
13 | CC(C)NC(=O)c1ccc2c(c1)S(=O)(=O)c1ccccc1C2=O | – | inconclusive [inhibitor, single point]
14 | CC(C)CNC(=S)NC1CC2CCCC(C1)N2Cc1cccs1 (stereo not drawn) | – | inconclusive [inhibitor, partial curve]
15 | COc1ccc(C(=O)C2CCCN(Cc3cccc4c3OCO4)C2)cc1OC (stereo not drawn) | – | active: 9.2 µM
16 | CCCCN1CC(N2CCN(Cc3ccccc3)CC2)CS1(=O)=O (stereo not drawn) | – | inconclusive [inhibitor, single point]
17 | CN(C)CCCN(C(=O)c1ccc(S(=O)(=O)N(C)C2CCCCC2)cc1)c1nc2ccc(Br)cc2s1 | – | inconclusive [inhibitor, single point]
18 | COC(=O)c1ccc(NC(=O)Nc2cccc(F)c2)cc1 | – | inconclusive [inhibitor, single point]
19 | CCOC(=O)c1ccc(NC(=O)CC2C(=O)N(c3cccc(C)c3)C(=O)N2CCOC)cc1 (stereo not drawn) | – | inconclusive [inhibitor, single point]
20 | COc1cccc(NC(=O)C2(C)CCN2C(=O)CC2CCCC2)c1 (stereo not drawn) | – | inconclusive [inhibitor, single point]
21 | C[C@@H]1CN([C@H](C)CO)C(=O)CCCn2cc(nn2)CO[C@H]1CN(C)C(=O)OCc1ccccc1 | inconclusive: -26.6% [inhibitor] | –
22 | O=c1[nH]c(CN2CCN(S(=O)(=O)c3ccc4c(c3)OCCO4)CC2)nc2sc3c(c12)CCCC3 | – | inconclusive [inhibitor, single point]

Row | SMILES | activity change, negative = growth inhibition | Potency
23 | Cc1ccccc1Nc1c(C)c(C)nc2ncnn12 | – | active: 20.6 µM
24 | COc1cccc(CNc2ncnc3cc(OC)c(OC)cc23)c1 | – | inconclusive [inhibitor, single point]
25 | COc1ccc(C(=O)COc2nc(C)cc(C)c2C#N)cc1 | – | inconclusive [inhibitor, single point]
26 | COc1ccc(N2CCN(CC(O)COc3cc(C)cc(C)c3)CC2)cc1 (stereo not drawn) | – | inconclusive [inhibitor, single point]
27 | CC(C)Cc1ccc(/C=C/C(=O)N2CCCCC2)cc1 | – | inconclusive [inhibitor, single point]
28 | Cc1cc(OCC(=O)NCCc2c[nH]c3ccccc23)c2c(C)cc(=O)oc2c1 | – | inconclusive [inhibitor, single point]
29 | CC(=O)N1CCC[C@H]1C(=O)NCC1Cc2cc(-c3cnccn3)cc(Cl)c2O1 (stereo partly drawn) | – | inactive
30 | Cc1noc(C)c1C(=O)N1CCC[C@@]2(CCN(c3ccccc3)C2)C1 | – | inconclusive [inhibitor, single point]
31 | CSc1ncnc2c1ncn2CCCNCc1ccccc1 | – | inactive
32 | Cc1ccc(CN2CCN(/N=C/c3ccc(N(C)C)cc3)CC2)cc1 | – | inconclusive [inhibitor, single point]
33 | CCOC(=O)c1c(CNc2ccncc2)n(C)c2cc(Br)c(O)cc12 | – | inconclusive [inhibitor, single point]
34 | COc1ccc(S(=O)(=O)NC2CC(=O)N(c3ccc(C)c(C)c3)C2)cc1C (stereo not drawn) | inconclusive: -33.7% [inhibitor] | –
35 | COc1cc(NC(=O)CSc2nc3ccccc3c(=O)n2C)ccc1NC(=O)c1ccco1 | – | inconclusive [inhibitor, partial curve, poor fit]
36 | Cc1cc(C)c(C(=O)CSc2nnc(C)s2)c(C)c1 | – | inconclusive [inhibitor, single point]
37 | Nc1ccc(-c2nc3c(Cl)cc(N)cc3[nH]2)cc1 | – | active: 7.31 µM
38 | COCCn1c(=O)c(-c2cc(F)cc(F)c2)nc2cnc(N3CCNCC3)nc21 | – | active: 23.1 µM
39 | CC(=O)c1sc(Nc2cccc3ccccc23)nc1C | – | inconclusive [inhibitor, single point]
40 | O=C(NCc1ccco1)C1CC(c2ccc(Cl)c(Cl)c2)=NO1 (stereo not drawn) | – | active: 8.2 µM
41 | O=C(CNC(=O)C12CC3CC(CC(C3)C1)C2)NC1=NCCS1 | – | inconclusive [inhibitor, single point]
42 | CCOC(=O)c1c(CN2CCN(c3ccccc3)CC2)oc2cc(Br)c(O)cc12 | – | inconclusive [inhibitor, partial curve, poor fit]
43 | CCN(CC)S(=O)(=O)c1ccc(OC)c(NC(=O)c2ccc([N+](=O)[O-])cc2)c1 | – | inconclusive [inhibitor, single point]
